Single values of this set are uncertain.
Assay: amyloid nucleation score relative to library mode (yeast Sup35 reporter selection) (log enrichment difference); higher = more amyloid nucleation; sequences are the first 22 residues of the Bri2 peptide extended by up to 12 random residues
Settings: random library (experiment): 1;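 active = nucleation score significantly above 0 at FDR 0.05; inactive = not significantly above 0 or absent from output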
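Note: [psi-pin-] Saccharomyces cerevisiae expressing SupN fusions, induced by 100 µM Cu2SO4, selected 7 d at 30 °C without adenine and uracil, scored by deep sequencing of output versus input.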

Sequence	amyloid nucleation score
EASNCFAIRHFENKFAVETLICFSIITHRSML	5.27
EASNCFAIRHFENKFAVETLICFSILREGRASRR	6.29
EASNCFAIRHFENKFAVETLICFSLGWEAPPQWR	7.04
EASNCFAIRHFENKFAVETLICFSLICYWWFGSR	5.16
EASNCFAIRHFENKFAVETLICFSLILYVLKVV	inactive
EASNCFAIRHFENKFAVETLICFSLYVMNATARN	2.15
EASNCFAIRHFENKFAVETLICFSMRTRSGVGCS	4.4
EASNCFAIRHFENKFAVETLICFSMVVRSDWTGT	4.25
EASNCFAIRHFENKFAVETLICFSNGMRVLARRQ	-0.534
EASNCFAIRHFENKFAVETLICFSPIDLTRALCW	4.89
EASNCFAIRHFENKFAVETLICFSQH	4.9
EASNCFAIRHFENKFAVETLICFSSVQTSVRVPS	3.3
EASNCFAIRHFENKFAVETLICFSTRMKWRFK	inactive
EASNCFAIRHFENKFAVETLICFSVMILSEYVVV	inactive
EASNCFAIRHFENKFAVETLICFSVQYSGTPGRG	6.62
EASNCFAIRHFENKFAVETLICFSVRFSLSGMGT	2.19
EASNCFAIRHFENKFAVETLICFSVWGAWRVWRA	2.09
EASNCFAIRHFENKFAVETLICFSWWECSYAMLA	inactive
EASNCFAIRHFENKFAVETLICFSY	3.34
EASNCFAIRHFENKFAVETLICFT	4.24
EASNCFAIRHFENKFAVETLICFTCVAGMHCGCR	3.05
EASNCFAIRHFENKFAVETLICFTDCYHALIRP	inactive

Sequence	amyloid nucleation score
EASNCFAIRHFENKFAVETLICFTDNDEM	inactive
EASNCFAIRHFENKFAVETLICFTEH	2.45
EASNCFAIRHFENKFAVETLICFTER	inactive
EASNCFAIRHFENKFAVETLICFTF	6.7
EASNCFAIRHFENKFAVETLICFTG	inactive
EASNCFAIRHFENKFAVETLICFTGCCC	5.72
EASNCFAIRHFENKFAVETLICFTKRGCQHRSHS	inactive
EASNCFAIRHFENKFAVETLICFTLTCGVSCMTG	-0.179
EASNCFAIRHFENKFAVETLICFTNGERGKECLT	inactive
EASNCFAIRHFENKFAVETLICFTSSSMRSRL	4.2
EASNCFAIRHFENKFAVETLICFTVSEGAWSVRP	1.78
EASNCFAIRHFENKFAVETLICFTVVVRERGPRN	3.88
EASNCFAIRHFENKFAVETLICFV	2.66
EASNCFAIRHFENKFAVETLICFVCGIMYSSVIA	inactive
EASNCFAIRHFENKFAVETLICFVCGSVCIVGIG	inactive
EASNCFAIRHFENKFAVETLICFVCP	7.43
EASNCFAIRHFENKFAVETLICFVDA	1.52
EASNCFAIRHFENKFAVETLICFVDR	4.96
EASNCFAIRHFENKFAVETLICFVFE	7.67
EASNCFAIRHFENKFAVETLICFVFVLMKLSPGL	-0.187
EASNCFAIRHFENKFAVETLICFVGENRGVEQEE	3.95
EASNCFAIRHFENKFAVETLICFVGGGSRVPLGK	2.4

Same assay, conditions: random library (experiment): 2

Sequence	amyloid nucleation score
EASNCFAIRHFENKFAVETLICFSIFTQQGVLTW	3.9
EASNCFAIRHFENKFAVETLICFSISSSPLWFYF	6.43
EASNCFAIRHFENKFAVETLICFSLSL	8.73
EASNCFAIRHFENKFAVETLICFSMCVSACNGLR	2.22
EASNCFAIRHFENKFAVETLICFSMDANKREKIC	inactive
EASNCFAIRHFENKFAVETLICFSMLCVNSFVCV	2.61
EASNCFAIRHFENKFAVETLICFSMVQDFKVLLR	inactive
EASNCFAIRHFENKFAVETLICFSNEWKSYALKG	inactive
EASNCFAIRHFENKFAVETLICFSNGCEPASSFW	6.02
EASNCFAIRHFENKFAVETLICFSRCDGAYLI	inactive
EASNCFAIRHFENKFAVETLICFSRFILCFNSSL	inactive
EASNCFAIRHFENKFAVETLICFSRIVI	inactive
EASNCFAIRHFENKFAVETLICFSRTSIIVLC	inactive
EASNCFAIRHFENKFAVETLICFSSNLIT	4.9
EASNCFAIRHFENKFAVETLICFSTMRLCVLRVC	inactive
EASNCFAIRHFENKFAVETLICFSVCKLVAFNHF	3.2
EASNCFAIRHFENKFAVETLICFSVTDVMSRSLV	2.49
EASNCFAIRHFENKFAVETLICFSWEATVCHVSV	4.61
EASNCFAIRHFENKFAVETLICFSWFLYMGDAVN	4.96
EASNCFAIRHFENKFAVETLICFSWS	8.47
EASNCFAIRHFENKFAVETLICFSYCSGISANAG	6.29
EASNCFAIRHFENKFAVETLICFSYLLSRDGSFV	inactive
EASNCFAIRHFENKFAVETLICFSYNNSTSRCSD	6.88
EASNCFAIRHFENKFAVETLICFSYSSVNTLYST	5.35
EASNCFAIRHFENKFAVETLICFTCCLR	7.83
EASNCFAIRHFENKFAVETLICFTFDRPYLGVVV	inactive

Sequence	amyloid nucleation score
EASNCFAIRHFENKFAVETLICFTFFFYLMRDGK	inactive
EASNCFAIRHFENKFAVETLICFTFFGALLERSA	inactive
EASNCFAIRHFENKFAVETLICFTHSRTI	2.18
EASNCFAIRHFENKFAVETLICFTLSSDYFWSEV	3.45
EASNCFAIRHFENKFAVETLICFTNPLLLREGVR	inactive
EASNCFAIRHFENKFAVETLICFTNRHYDHPHIL	3.64
EASNCFAIRHFENKFAVETLICFTPLYERVYVVR	inactive
EASNCFAIRHFENKFAVETLICFTQLVG	inactive
EASNCFAIRHFENKFAVETLICFTRSMFLSFTN	inactive
EASNCFAIRHFENKFAVETLICFTSDSRCLKDWR	4.79
EASNCFAIRHFENKFAVETLICFTSHLNNARHGL	3.87
EASNCFAIRHFENKFAVETLICFTSIISVDSCRS	1.25
EASNCFAIRHFENKFAVETLICFTSLFLVRYI	inactive
EASNCFAIRHFENKFAVETLICFTTSRASFDETS	1.64
EASNCFAIRHFENKFAVETLICFTTSSYYWSLQV	inactive
EASNCFAIRHFENKFAVETLICFTVC	5.2
EASNCFAIRHFENKFAVETLICFTVLCGSDSSVL	7.73
EASNCFAIRHFENKFAVETLICFTWCIQHTLMKC	inactive
EASNCFAIRHFENKFAVETLICFTYACRFNIYPF	3.67
EASNCFAIRHFENKFAVETLICFVCFVCWCSVCF	-0.0149
EASNCFAIRHFENKFAVETLICFVCGCMRRGALP	4.58
EASNCFAIRHFENKFAVETLICFVDSSWLVAMSI	inactive
EASNCFAIRHFENKFAVETLICFVEFERDQHSVH	4.26
EASNCFAIRHFENKFAVETLICFVEIYSWYRHSA	inactive
EASNCFAIRHFENKFAVETLICFVGNWRVRVKGV	inactive

Same assay, conditions: random library (experiment): 3

Sequence	amyloid nucleation score
EASNCFAIRHFENKFAVETLICFSIYKTAIFIMN	5.88
EASNCFAIRHFENKFAVETLICFSNTWPCEARYR	2.47
EASNCFAIRHFENKFAVETLICFSRSYCR	inactive
EASNCFAIRHFENKFAVETLICFSVRPPASLVGE	inactive
EASNCFAIRHFENKFAVETLICFSVTNKIIEGIT	inactive
EASNCFAIRHFENKFAVETLICFSYCLILWVTES	1.28
EASNCFAIRHFENKFAVETLICFSYSRVDKLKEY	0.261
EASNCFAIRHFENKFAVETLICFTAARSLVGSRA	inactive
EASNCFAIRHFENKFAVETLICFTAFFETYWMWR	inactive
EASNCFAIRHFENKFAVETLICFTFRPWEPRCGS	5.02
EASNCFAIRHFENKFAVETLICFTGGVRSLCVDC	4.08
EASNCFAIRHFENKFAVETLICFTGIQ	inactive
EASNCFAIRHFENKFAVETLICFTLGQHRFRSTV	inactive
EASNCFAIRHFENKFAVETLICFTLTLFGVHISY	inactive
EASNCFAIRHFENKFAVETLICFTMFVYLGVHGC	inactive
EASNCFAIRHFENKFAVETLICFTRAQTSSRGGS	2.36
EASNCFAIRHFENKFAVETLICFTRTPLLRFYW	inactive
EASNCFAIRHFENKFAVETLICFTSLETNVHTRD	inactive
EASNCFAIRHFENKFAVETLICFTVMLCTVVTCR	inactive
EASNCFAIRHFENKFAVETLICFTVRRVCFRTYL	inactive
EASNCFAIRHFENKFAVETLICFTWLPCRRPCFM	1.94
EASNCFAIRHFENKFAVETLICFVARATTKYTST	2.97
EASNCFAIRHFENKFAVETLICFVAVRKACCA	inactive
EASNCFAIRHFENKFAVETLICFVC	4.66
EASNCFAIRHFENKFAVETLICFVDSLPHVHASF	inactive
EASNCFAIRHFENKFAVETLICFVFGDRAHVVEE	8.01

Reference: the supplement of paper PMC12067230
